Source: publication PMC4336329 (PLoS ONE, 2015)
The campaign covered roughly 310,000 compounds. About 2,200 (0.71%) showed an effect of 50% or more. Effects have a minus sign here. Some of the results follow.

Molecular target: human ether-à-go-go-related gene (hERG) potassium channel (human, UniProt Q12809)
Assay: primary screen, population patch clamp on CHO cells stably expressing hERG

Chain of human ether-à-go-go-related gene (hERG) potassium channel (Q12809 whole entry, looked up): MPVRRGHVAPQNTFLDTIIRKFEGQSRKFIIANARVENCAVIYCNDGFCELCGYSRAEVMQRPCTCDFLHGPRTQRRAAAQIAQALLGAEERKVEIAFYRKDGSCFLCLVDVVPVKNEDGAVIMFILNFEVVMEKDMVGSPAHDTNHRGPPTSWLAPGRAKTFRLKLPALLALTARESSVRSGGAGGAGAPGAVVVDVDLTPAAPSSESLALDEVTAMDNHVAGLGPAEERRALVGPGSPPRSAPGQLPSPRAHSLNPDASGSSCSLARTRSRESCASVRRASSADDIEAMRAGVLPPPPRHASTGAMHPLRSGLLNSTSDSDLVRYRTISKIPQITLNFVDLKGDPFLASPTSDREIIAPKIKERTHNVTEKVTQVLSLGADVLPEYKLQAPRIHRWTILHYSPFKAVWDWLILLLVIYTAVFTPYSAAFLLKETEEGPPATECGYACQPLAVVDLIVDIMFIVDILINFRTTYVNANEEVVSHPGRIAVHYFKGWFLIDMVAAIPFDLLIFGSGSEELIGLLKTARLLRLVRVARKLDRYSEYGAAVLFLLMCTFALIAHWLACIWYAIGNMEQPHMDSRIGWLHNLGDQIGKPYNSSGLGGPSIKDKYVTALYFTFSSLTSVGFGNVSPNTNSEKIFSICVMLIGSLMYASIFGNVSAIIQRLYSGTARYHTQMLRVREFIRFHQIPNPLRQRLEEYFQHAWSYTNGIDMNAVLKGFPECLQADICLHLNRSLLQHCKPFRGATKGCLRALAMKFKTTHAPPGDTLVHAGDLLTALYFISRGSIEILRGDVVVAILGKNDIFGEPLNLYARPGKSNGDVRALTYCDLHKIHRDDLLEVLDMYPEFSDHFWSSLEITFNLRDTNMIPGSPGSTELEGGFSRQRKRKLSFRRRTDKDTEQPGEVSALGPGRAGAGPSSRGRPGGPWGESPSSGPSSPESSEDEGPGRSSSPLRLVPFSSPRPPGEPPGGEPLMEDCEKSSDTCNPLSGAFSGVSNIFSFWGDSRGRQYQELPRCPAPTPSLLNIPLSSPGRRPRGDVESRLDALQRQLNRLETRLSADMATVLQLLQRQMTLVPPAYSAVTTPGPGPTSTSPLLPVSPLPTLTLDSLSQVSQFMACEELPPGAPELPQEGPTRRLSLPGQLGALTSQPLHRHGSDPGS

SMILES | hERG current change (%, negative = inhibition) at 1uM
CNc1nc2cccnc2s1 | 14.5%
O=C(c1ccc(C#CC2(O)CCCCC2)cc1)N1CCN(C(c2ccccc2)c2ccccc2)CC1 | 8.48%
NC(=O)Cn1c(=O)n(CCCC(=O)NC2CCN(Cc3ccccc3)CC2)c(=O)c2ccccc21 | 1.96%
COC(=O)c1ccc(N2CCc3ccccc32)c([N+](=O)[O-])c1 | 19.5%
C[C@@H]1C(=O)O[C@@H]2CC34[C@H]5C[C@@H](C(C)(C)C)C36[C@H](OC(=O)[C@@H]6O)OC4(C(=O)O5)[C@@]12O (stereo partly drawn) | 12.3%
COCCN(C(=O)CC(C)(C)C)c1nnc(-c2cccnc2)s1 | 6.36%
O=C1SCC(c2ccc(Cl)cc2Cl)=NN1Cc1nnc(-c2ccccc2)o1 | 10.6%
Nc1nc(-c2ccccc2)cc(-c2ccccc2O)n1 | 5.13%
C/C(=N/OCO/N=C(\C)c1ccccc1F)c1ccccc1F | -1.93%
Cc1ccc2nc(SCC(=O)N3CCC(C)CC3)nc(=O)n2c1 | -3.85%
Fc1cnc(N2CCOCC2)nc1N1CCOCC1 | 4.55%
Cc1ccc(S(=O)(=O)N2CCN(C(=O)COC(=O)C3(C)CC3(Cl)Cl)CC2)c(C)c1 (stereo not drawn) | 3.88%
CCOC(=O)N1CCN(Cc2ccc3ccccc3c2)CC1 | 15.1%
O=C(NCC(=O)N(c1cccnc1)C(C(=O)NC1CCCC1)c1cccs1)c1ccco1 (stereo not drawn) | 11.6%
Cc1ccc(S(=O)(=O)N2CCCCC2)cc1NC(=O)C1CCCO1 (stereo not drawn) | -0.457%
COc1ccc(-c2nnc(SCC(=O)Nc3cc(C)on3)o2)cc1 | 4.41%
Nc1ccc2nn(-c3cc([N+](=O)[O-])ccc3O)nc2c1 | 11.2%
CCc1ccc(C(O)(CC)C(CN2CCOCC2)c2ccccc2)cc1.Cl (stereo not drawn) | 11.3%
COc1ccccc1OCc1ccc(C(=O)N2N=C(C(F)F)CC2(O)C(F)F)o1 (stereo not drawn) | 6.02%

SMILES | hERG current change (%, negative = inhibition) at 1uM
Cc1nc(NCC2CCCO2)c2nnn(Cc3ccccc3Cl)c2n1 (stereo not drawn) | 0.623%
CC(C)(C)NC(=O)NC(=O)COC(=O)c1ccc(OC(F)(F)F)cc1 | 5.72%
COc1ccc(C(=O)Cc2cc(OC)c(OC)cc2C(=O)c2ccccc2F)cc1OC | -0.899%
O=C(CSc1ncnc2c1cnn2-c1cccc(Cl)c1)NCC1CCCO1 (stereo not drawn) | 11.5%
O=C(Nc1ccccn1)C(F)(F)C(F)(F)C(F)(F)C(F)(F)C(=O)Nc1ccccn1 | 7.68%
O=C(CCc1ccccc1)OCC(=O)c1ccc(Br)cc1 | 14.7%
S=C(Nc1ccccc1)Nc1cccc(Br)c1 | 8.26%
CSC(=S)N/N=C/c1ccccc1 | 16.6%
Cl.O=[N+]([O-])c1ccc(N2CCCNCC2)c2ncccc12 | -17.1%
CCOc1ccc(NC(=O)C(c2ccccn2)N(C(=O)CCl)c2ccc(OC)cc2)cc1 (stereo not drawn) | -0.479%
CCOc1cc(NC(=O)c2ccccn2)c(OCC)cc1NC(=O)c1cccc(C)c1 | -3.34%
COc1cc(OC)c(OC)cc1CN1CCCC(C(=O)c2ccccc2SC)C1 (stereo not drawn) | -15.5%
CCOC(=O)C1(C)C=C(Nc2cccc(OC)c2)C(=O)N1c1ccccc1 (stereo not drawn) | 6.39%
CCOCCCNC(=O)C(NC(=O)c1ccc(NC(C)=O)cc1)c1ccc(C)cc1 (stereo not drawn) | -15.3%
CN(C(=O)CSc1nc2[nH]ncc2c(=O)[nH]1)c1ccccc1 | 8.5%
COCCN(C(=O)COc1ccccc1C#N)c1c(N)n(Cc2ccccc2)c(=O)[nH]c1=O | 11.1%
Cc1cccc(N(C(=O)CCC(=O)Nc2cc(C)on2)C(C(=O)NC2CCCC2)c2ccccc2)c1 (stereo not drawn) | 13%
O=C(O)c1ccc(COc2ccc(/C=N/NC(=O)c3cccs3)cc2)cc1 | 4.37%
O=C(O)CCCc1ccc2ccc3cccc4ccc1c2c34 | 13.3%

SMILES | hERG current change (%, negative = inhibition) at 1uM
Cc1ccc(S(=O)(=O)NN2C(=O)c3ccccc3NC2c2ccccn2)cc1 (stereo not drawn) | 5.92%
CCCN(C1CCS(=O)(=O)C1)S(=O)(=O)c1ccc2ccccc2c1 (stereo not drawn) | -3.62%
O=C(NC(=S)NCC1CCCO1)c1ccccc1F (stereo not drawn) | 9.67%
NC(=O)CSc1nnc(NC(=O)c2ccc(Br)o2)s1 | 16%
COC(=O)c1cc(S(=O)(=O)N2CCC(c3ccccc3)C2)c[nH]1 (stereo not drawn) | 2.25%
COc1ccc(NC(=O)c2ccc(Br)o2)cc1 | 4.84%
COc1ccc2cc(C)c(SCC(=O)Nc3cc(C)on3)nc2c1 | 9.52%
Cc1cccc(-n2nnc3c(=O)n(CC(=O)Nc4cc(C)on4)cnc32)c1 | 11.9%
CC(C)[C@H](NC(=O)NCc1cccs1)C(=O)O | 18.5%
COC(=O)c1ccc(NC(=O)Cn2nc(C)cc2C)cc1 | 17.4%
CCc1ccc(NC(=O)CSc2nncn2-c2cccnc2)cc1 | 12.3%
CCCCn1c(N)c(N(CCC(C)C)C(=O)C2CCN(C(=O)c3ccccc3C)CC2)c(=O)[nH]c1=O | 6.03%
O=C(CCCc1ccccc1)Nc1cccnc1 | -1.21%
CC(=O)Nc1ccc(CN2CCN(c3cccc(C(F)(F)F)c3)CC2)cc1 | -19.1%
CC(C)(C)c1cc(-c2ccccc2)no1 | 6.58%
COc1ccc(CC(=O)Nc2ccc(S(=O)(=O)N3CCC(C)CC3)cc2)c(OC)c1 | 10.6%
O=S(=O)(NCc1cccnc1)c1ccc(Cl)c(Cl)c1Cl | -1.91%
O=C(O)/C=C/c1ccc(Oc2ncccn2)cc1 | 6.9%
CC(C)CCNC(=O)c1ccc2c(c1)ncn2C1CCCCC1 | -15.6%
